Test results reported in the supplement of paper PMC7826260.
The other results are listed elsewhere or left out. One pool of 16,384 single-stranded DNAs met each Rep nickase domain in vitro (1 h at 37 °C, 3 µM enzyme); the outer parts of the 90-letter strands are left off. Values are log2 of uncut reads against the no-enzyme pool; uncut sequences lie near 0, cut ones below; no hit call is given. Counts are relative to all reads, so uncut sequences can rise above 0 when many others are cut.

Columns and labels:
Test in all cases: uncleaved DNA left, log2 of reads against the no-enzyme library (log2 ratio); higher = less cleavage (more negative = more Rep cleavage of the k-mer); sequences stand for … in CTCGTCCG…ACCGGAGA
[1] = system: T1, Rep nickase domain of Muscovy duck circovirus
T1 sequence (protein, residues 1-111, tag omitted): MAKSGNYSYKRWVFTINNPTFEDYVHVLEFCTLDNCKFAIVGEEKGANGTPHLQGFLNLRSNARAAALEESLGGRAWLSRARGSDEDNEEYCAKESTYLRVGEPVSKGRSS
Description: (§1)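 A pool of 90-nt single-stranded DNAs with seven random bases just before the constant AC of the nick site (name = the seven bases) was cut by 3 µM recombinant His6-SUMO-tagged Rep nickase domain (300 nM DNA, 50 mM HEPES pH 8.0, 50 mM NaCl, 1 mM MnCl2, 1 h, 37 °C, three replicates). Uncut DNA was amplified and sequenced.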

[2] = system: T2, Rep nickase domain of banana bunchy top virus
T2 sequence (protein, residues 1-94, tag omitted): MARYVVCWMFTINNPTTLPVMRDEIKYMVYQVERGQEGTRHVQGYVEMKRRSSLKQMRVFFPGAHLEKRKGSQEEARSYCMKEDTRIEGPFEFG
Description: as §1

[3] = system: T3, Rep nickase domain of cabbage leaf curl virus
T3 sequence (protein, residues 1-116, tag omitted): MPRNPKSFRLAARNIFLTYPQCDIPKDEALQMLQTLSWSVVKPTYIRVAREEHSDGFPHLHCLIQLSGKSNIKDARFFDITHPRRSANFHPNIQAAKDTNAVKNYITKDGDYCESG
Description: as §1

[4] = system: T4, Rep nickase domain of chickpea chlorotic dwarf virus
T4 sequence (protein, residues 1-124, tag omitted): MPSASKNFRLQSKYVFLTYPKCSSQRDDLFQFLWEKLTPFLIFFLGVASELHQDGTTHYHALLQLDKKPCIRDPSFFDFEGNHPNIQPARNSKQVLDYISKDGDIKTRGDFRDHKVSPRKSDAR
Description: as §1

[5] = system: T5, Rep nickase domain of faba bean necrotic yellows virus
T5 sequence (protein, residues 1-98, tag omitted): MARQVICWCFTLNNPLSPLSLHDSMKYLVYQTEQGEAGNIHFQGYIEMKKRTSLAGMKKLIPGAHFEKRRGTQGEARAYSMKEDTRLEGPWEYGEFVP
Description: as §1

[6] = system: T6, Rep nickase domain of maize striate mosaic virus
T6 sequence (protein, residues 1-117, tag omitted): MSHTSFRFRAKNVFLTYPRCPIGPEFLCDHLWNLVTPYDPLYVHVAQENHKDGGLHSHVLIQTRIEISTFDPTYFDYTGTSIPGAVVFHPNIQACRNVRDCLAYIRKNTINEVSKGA
Description: as §1

[7] = system: T7, Rep nickase domain of porcine circovirus 2
T7 sequence (protein, residues 2-116, tag omitted): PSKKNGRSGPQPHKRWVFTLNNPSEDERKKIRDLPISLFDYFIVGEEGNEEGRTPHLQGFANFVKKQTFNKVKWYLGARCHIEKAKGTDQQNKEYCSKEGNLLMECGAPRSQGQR
Description: as §1

[8] = system: T8, Rep nickase domain of tomato yellow leaf curl virus
T8 sequence (protein, residues 1-136, tag omitted): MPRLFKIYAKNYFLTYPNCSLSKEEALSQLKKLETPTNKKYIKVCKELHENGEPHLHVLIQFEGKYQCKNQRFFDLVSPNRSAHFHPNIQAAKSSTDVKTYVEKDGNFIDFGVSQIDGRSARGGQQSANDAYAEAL
Description: as §1

[9] = system: T9, Rep nickase domain of wheat dwarf virus
T9 sequence (protein, residues 1-137, tag omitted): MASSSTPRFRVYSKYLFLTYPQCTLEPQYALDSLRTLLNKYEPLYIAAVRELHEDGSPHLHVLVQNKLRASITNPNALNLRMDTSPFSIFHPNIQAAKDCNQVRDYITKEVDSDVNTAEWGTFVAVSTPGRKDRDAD
Description: as §1

Row | Sequence | uncleaved DNA left (log2) [1] | uncleaved DNA left (log2) [2] | uncleaved DNA left (log2) [3] | uncleaved DNA left (log2) [4] | uncleaved DNA left (log2) [5] | uncleaved DNA left (log2) [6] | uncleaved DNA left (log2) [7] | uncleaved DNA left (log2) [8] | uncleaved DNA left (log2) [9]
1 | AAGTGAT | 0.0297 | -0.121 | 0.205 | 1.61 | -0.0557 | 1.84 | -3.19 | -0.179 | 0.0591
2 | GTCCAGT | 0.0973 | -0.0202 | 0.336 | 0.795 | -0.148 | 1.54 | 0.0879 | 0.0845 | 0.0949
3 | AATTTTC | -1.46 | -0.419 | -0.0433 | -0.954 | -0.00956 | -0.785 | -0.999 | -0.00908 | 0.0881
4 | GATTACC | 0.00514 | 0.0144 | 0.139 | -0.982 | -0.0557 | 0.782 | -0.654 | 0.109 | 0.0758
5 | TACAGAA | -0.0461 | -0.0784 | -0.0737 | -0.771 | 0.00596 | -0.734 | -0.112 | -0.108 | -0.0818
6 | CTGCACA | -0.21 | -0.0784 | -0.297 | -1.18 | -0.0938 | -0.848 | -0.209 | -0.191 | -0.113
7 | GAGACTA | 0.0499 | 0.112 | 0.643 | 1.85 | 0.00149 | 2.13 | 0.243 | 0.0968 | 0.243
8 | CCAAAAA | 0.11 | 0.129 | 0.178 | -0.00533 | 0.091 | -0.52 | 0.154 | 0.012 | 0.257
9 | CGCAGAG | 0.0615 | 0.0228 | -0.423 | -0.436 | 0.0999 | -0.77 | 0.274 | 0.0242 | -0.0709
10 | CTACTCC | -0.146 | -0.134 | 0.0567 | -0.833 | -0.0427 | 0.432 | 0.0664 | 0.0118 | -0.0572
11 | CGATGTC | 0.0146 | -0.0878 | -0.0835 | 0.133 | -0.176 | -0.144 | -0.0662 | -0.0224 | -0.0395
12 | GGGGCGC | -0.00905 | 0.0864 | 0.766 | 1.76 | -0.0786 | 2.11 | 0.175 | -0.126 | 0.0403
13 | GATGCCT | 0.123 | 0.0176 | 0.0564 | -0.817 | -0.0241 | 0.247 | -0.0694 | -0.0221 | 0.102
14 | TACGGAG | -0.0455 | -0.0707 | -0.472 | -0.728 | 0.0113 | -1.02 | 0.158 | -0.00335 | -0.0849
